Measured values: publication PMC4336329 (PLoS ONE, 2015)
In all, about 310,000 compounds went through this assay and about 2,200 (0.71%) showed an effect of 50% or more. The effect is printed as a negative number. Some of the results follow.

biological target: human ether-à-go-go-related gene (hERG) potassium channel (human, UniProt Q12809); assay: primary screen, population patch clamp on CHO cells stably expressing hERG
Sequence (Q12809 whole entry, looked up): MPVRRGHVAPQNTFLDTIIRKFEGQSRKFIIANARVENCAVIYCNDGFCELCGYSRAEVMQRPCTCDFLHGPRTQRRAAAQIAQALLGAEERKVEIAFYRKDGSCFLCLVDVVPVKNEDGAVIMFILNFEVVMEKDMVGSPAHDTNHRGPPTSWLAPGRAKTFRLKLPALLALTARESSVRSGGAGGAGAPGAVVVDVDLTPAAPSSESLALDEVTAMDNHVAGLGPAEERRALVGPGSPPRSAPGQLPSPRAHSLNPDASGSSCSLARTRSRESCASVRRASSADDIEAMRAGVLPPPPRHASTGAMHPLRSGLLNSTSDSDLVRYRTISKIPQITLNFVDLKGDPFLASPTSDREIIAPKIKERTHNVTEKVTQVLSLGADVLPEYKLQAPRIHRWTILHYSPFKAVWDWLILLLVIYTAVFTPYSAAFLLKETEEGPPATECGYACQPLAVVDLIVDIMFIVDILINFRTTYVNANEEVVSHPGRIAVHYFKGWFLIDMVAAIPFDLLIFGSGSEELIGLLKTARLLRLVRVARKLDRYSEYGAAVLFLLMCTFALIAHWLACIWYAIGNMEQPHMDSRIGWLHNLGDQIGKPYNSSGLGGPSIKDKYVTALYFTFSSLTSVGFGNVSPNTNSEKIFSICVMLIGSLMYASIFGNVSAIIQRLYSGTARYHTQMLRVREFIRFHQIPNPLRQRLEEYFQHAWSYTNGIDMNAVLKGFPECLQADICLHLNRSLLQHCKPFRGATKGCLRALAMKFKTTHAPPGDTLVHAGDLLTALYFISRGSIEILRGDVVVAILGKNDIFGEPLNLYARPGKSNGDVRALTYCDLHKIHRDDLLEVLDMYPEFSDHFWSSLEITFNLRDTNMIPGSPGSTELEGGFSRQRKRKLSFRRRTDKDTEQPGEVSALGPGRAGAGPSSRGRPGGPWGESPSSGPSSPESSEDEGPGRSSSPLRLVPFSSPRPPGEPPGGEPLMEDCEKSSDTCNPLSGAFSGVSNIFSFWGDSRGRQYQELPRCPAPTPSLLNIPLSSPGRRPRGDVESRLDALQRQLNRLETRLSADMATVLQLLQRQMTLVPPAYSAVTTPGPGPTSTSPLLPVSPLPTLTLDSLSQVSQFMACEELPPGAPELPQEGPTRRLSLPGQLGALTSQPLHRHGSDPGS

Compound	hERG current change (%, negative = inhibition) at 1uM [%]
CCOc1cccc2sc(N(CCN(CC)CC)C(=O)c3ccc(S(=O)(=O)N4CCCC4)cc3)nc12.Cl	-6.23
CCn1cc(C(=O)N2CCCC2)c(=O)c2cc(S(=O)(=O)N3CCOCC3)ccc21	13.2
C=C1CCN([C@H](C(=O)Nc2ccc(OC)cc2)C(C)C)S(=O)(=O)c2ccccc21	3.63
COc1ccc(Cl)c2sc(N3CCN(C(=O)C4=COCCO4)CC3)nc12	-2.18
O=C(NC(=S)Nc1ccc(CN2CCOCC2)cc1)c1ccccc1[N+](=O)[O-]	5.86
CCOC(CNC(=O)C1CCN(S(=O)(=O)c2ccc3nc4c(c(C(=O)O)c3c2)CC(C)CC4)CC1)OCC (stereo not drawn)	8.7
COc1ccc2[nH]c(C(=O)N/N=C/c3ccccc3OC)cc2c1	15.8
CCCCn1c(N)c(N(CCC(C)C)C(=O)c2cc(-c3ccco3)nc3ccccc23)c(=O)[nH]c1=O	13.3
Cc1cccc(OCC(=O)O/N=C(\N)c2ccccn2)c1	14.7
COCCNC(=O)CCc1c(C)nc2c(c(C)nn2-c2ccc(C)c(C)c2)c1C	11.9
Cc1ccccc1C(=O)c1cccn1CC(=O)NC(C)c1ccccc1 (stereo not drawn)	15.1
N#Cc1cccc(C#N)c1N1CCC(C#N)CC1	8.75
O=[N+]([O-])c1ccc(N2CCN(Cc3cccc([N+](=O)[O-])c3)CC2)cc1	-18
COc1ccc(C(=O)NC(=O)Nc2cc(C)ccn2)cc1	7.47
Cc1c(N=C2NC(=O)C(CC(=O)Nc3ccccc3)S2)c(=O)n(-c2ccccc2)n1C (stereo not drawn)	4.34
CN(Cc1ccccc1)C(=O)c1[nH]cnc1C(=O)N[C@@H](Cc1ccccc1)C(=O)OCc1ccccc1	12.2
CCC1(c2ccc(F)cc2)NC(=O)N(CC(=O)N2CCc3ccccc3C2)C1=O (stereo not drawn)	5.78
CCCOC(=O)Nc1ccc(N2CCCCC2)cc1	0.301
COc1ccc(S(=O)(=O)c2nnn(-c3cccc(Cl)c3)c2N)cc1	12.4
CC(=O)Nc1ccc(C(=O)CSc2ncn(-c3ccccc3)n2)cc1	8.53
CCn1c(SC)nnc1C1CCCN(CC(=O)Nc2ccccc2N2CCOCC2)C1 (stereo not drawn)	0.921

Compound	hERG current change (%, negative = inhibition) at 1uM [%]
CC(=O)N1N=C2c3ccccc3CCC2C1c1cccs1 (stereo not drawn)	10.8
O=C(Nc1cnn(Cc2ccc(Cl)cc2)c1)c1cccs1	0.901
CC(=O)Nc1nc(-c2ccc3c(c2)CC(C)N3C(=O)C2CC2)c(C)s1 (stereo not drawn)	5.69
O=C1c2ccccc2NC(c2ccc(-c3cccs3)o2)N1O (stereo not drawn)	1.4
COC(=O)C1=C(C)N(Cc2ccccc2)C(=O)N[C@H]1c1cccs1	9.04
CC1CCN(CCc2nc3cc(NC(=O)NC4CCCCC4)ccc3n2C)CC1	-6.23
COc1ccccc1NS(=O)(=O)c1cccc(NC(=O)C2CC(=O)N(Cc3ccccc3)C2)c1 (stereo not drawn)	13.6
O=C(COC(=O)c1cc(NS(=O)(=O)c2cccs2)ccc1O)Nc1cc(Cl)ccc1Cl	11.7
Cc1nn2c(N)csc2nc1=O	0.607
O=[N+]([O-])c1ccc(/C=N/Nc2nc(NCc3ccccc3)nc(N3CCOCC3)n2)cc1	9.85
Cc1nn(-c2ccccc2)c(C)c1NC(=O)COC(=O)c1ccc(O)cc1O	1.74
Cc1cc(-c2nnc(-c3cccc(Cl)c3)o2)no1	-0.554
N=C1C(c2nc3ccccc3[nH]2)=C(O)CN1NC(=O)c1c[nH]c2ccccc12	7.66
O=C(CNCC1CCCO1)Nc1ccc([N+](=O)[O-])cc1C(=O)Nc1ccccc1F (stereo not drawn)	4.9
O=C(Cc1c[nH]c2ccccc12)Nc1ccccc1N1CCOCC1	10.2
COc1ccc(N2CN=C3SCC(=O)N3C2)cc1	15.7
CC(=O)c1ccc(NC(=O)c2onc(C)c2Cl)cc1	14
COc1ccc(NC(=O)CSC2=C(C#N)C(c3ccco3)C(C(=O)Nc3nc4ccccc4s3)=C(C)N2)cc1 (stereo not drawn)	16.3
O=C(N/N=C/c1cccc(Oc2ccccc2)c1)c1ccccc1Br	20.8
CCn1ncc(Br)c1C(=O)Nc1ccc(-c2ccno2)cc1	12
O=C(NCc1ccccc1)C(=O)Nc1nccs1	11.7
